Screen size: about 150,000 compounds; about 540 (0.36%) showed an effect of 50% or more. The list shows a part of the results.
test system: Plasmodium falciparum; assay: Primary screen in NF54 nanoGlo assay, in single point, at 2uM, 72h; a lower Z score goes with more inhibition; assay type: functional, Erythrocyte; settings: timepoint 72 hour

Row | Compound | % Inhibition | Z score
1 | Cc1cnc(C2CCC2)n1C1CCN(C(=O)CCc2ccccc2)CC1 | -14% | 1.78
2 | CCN(Cc1ccccn1)Cc1ccc(Br)o1 | -11% | 1.41
3 | Cc1nc(C)c(C(=O)N(CCS(C)(=O)=O)C(C)(C)C)s1 | -6% | 0.7
4 | COC(=O)Nc1cccc(NCc2ncc(C(C)(C)C)o2)c1 | 7% | -0.67
5 | Cc1ccccc1N1CCN(C(=O)C[C@H](c2ccc(F)cc2)c2cn(Cc3ccccc3)c3ccccc23)CC1 | 5% | -0.58
6 | Cc1nc(C(=O)N[C@H]2CN(C3CCOCC3)C[C@@H]2C(C)C)cs1 | -9% | 1.73
7 | O=C(c1ccc(Br)o1)N1CCCS1(=O)=O | 14% | -2.59
8 | COc1ccc(CCC(=O)N2CC(n3ccnc3C)C2)cc1 | -1% | 0.08
9 | O=C(NCc1nc2ccccc2s1)c1ccc(=O)[nH]n1 | -12% | 2.01
10 | Cc1n[nH]c(C)c1S(=O)(=O)Nc1ccccc1C(=O)NC1CC1 | 9% | -1.05
11 | CC(C)Oc1ccc2c(c1)[C@H](NS(=O)(=O)CC#N)CCC2 | -3% | 0.24
12 | O=S(=O)(c1cccc(Cl)c1)N1CCc2nc(N3CCCCC3)nc(Oc3ccccc3)c2C1 | 53% | -13.31
13 | Cc1ccc(CN2CCC(CNC(=O)C3CCCN(c4ncnc5c4nc4n5CCCCC4)C3)C2)cc1 (stereo unspecified) | -1% | 0.21
14 | OC[C@H]1CCCN(CCNCc2ccccc2OCCCCN2CCOCC2)C1 | -2% | 0.22
15 | Cc1cc(Cn2ccc(-c3cccc(-c4cccs4)c3)n2)no1 | -3% | 0.25
16 | CC1CC(N2CCCC(Cn3cncn3)C2)C(=O)O1 (stereo unspecified) | -7% | 0.94
17 | c1cc2nonc2cc1CN1CCC[C@H](Nc2ccc3c(c2)OCCO3)C1 | 8% | -1.41
18 | CC(C)(C)c1nccc(NCc2cc(C(F)F)on2)n1 | -3% | 0.67
19 | CCc1cccc(C)c1N1C[C@@H](c2ncc(-c3cccnc3)[nH]2)CC1=O | -14% | 1.9
20 | Cc1nc(N[C@H]2CCS(=O)(=O)C2)c(Cl)cc1C#N | 1% | -0.12
21 | CNC(=O)C(C)(C)CN[C@@H](C)c1cc(F)cc(F)c1 | -3% | 0.38

Row | Compound | % Inhibition | Z score
22 | CN1CC2(CCN(C(=O)CN3CCCC3)CC2)C[C@@H](c2ccccc2)C1=O | 0% | 0.04
23 | Oc1ccc(Br)cc1-c1nc(C(F)(F)F)no1 | 2% | -0.15
24 | COc1cc(CN(C)Cc2cc[nH]n2)ccc1OC[C@@H](O)CN1CCCCCC1 | -4% | 0.85
25 | CC(C)C(=O)N1C[C@@H]2C[C@@H](O)CN2C2(C1)CN(C1CCC(F)(F)CC1)C2 | 1% | -0.21
26 | CC(=O)N1C[C@@H]2OCC(=O)N(Cc3ccc(F)cc3)[C@@H]2C1 | 19% | -2.22
27 | CCn1nc(-c2ccc(OC)c(S(=O)(=O)Nc3ccc(C)c(C)c3)c2)c2c(c1=O)CCCC2 | -6% | 0.93
28 | CNC(=O)[C@H](NC(=O)c1cc(-c2ccc(C)s2)nc2onc(C)c12)c1ccccc1 | -2% | 0.3
29 | Cc1ccc(O)c(NC(=O)c2cccn3c(Cc4ccccc4)nnc23)c1 | -5% | 0.76
30 | COc1cc(C(=O)N[C@H]2CCN(c3c(F)cccc3F)C2)ncn1 | -2% | 0.24
31 | CCCN1CCN(C(=O)Nc2ccc3c(c2)CCC3)CC1 | -2% | 0.45
32 | CC(C)Oc1cc(NC(Cc2ccccn2)[C@H]2C[C@@H](O)C2)nc(N)n1 (stereo partly specified) | 3% | -0.3
33 | O=S(=O)(Cc1cccc(F)c1)N1CC(c2nc(-c3cnccn3)no2)C1 | -4% | 0.76
34 | O=C(NCCc1ccccc1)N1CC[C@H](Oc2cnc3ccccc3n2)C1 | -1% | 0.19
35 | CC[C@@]1(C2CCN(Cc3ccc(C)s3)CC2)NC(=O)N(CCc2ccc(OC)cc2)C1=O | 2% | -0.22
36 | CC(NCC(O)COc1ccc2c(c1)OCO2)c1ccccc1 (stereo unspecified) | -9% | 1.69
37 | O=C(NC1CCCC1)N1CCC[C@@H]1CN1CCCC1 | 1% | -0.16
38 | Cc1cc(NC(=O)CCCc2ccccn2)sn1 | -3% | 0.45
39 | O=C(CC1CC1)NCCn1c(=O)[nH]c2ncccc2c1=O | -4% | 0.66
40 | CCn1cc(CN(C)C/C=C/c2ccccc2)cn1 | -4% | 0.39
41 | Cc1ccc(C(=O)N2CCC[C@H](CCC(=O)N3CCN(c4ccccn4)CC3)C2)s1 | -8% | 1.24
42 | Cc1nc(NC(=O)Cc2ccccc2O)n[nH]1 | -18% | 3.13

Row | Compound | % Inhibition | Z score
43 | CCN1CCN(c2nc(-c3ccccc3)ncc2C(=O)N2CCC(Cc3ccccc3)CC2)CC1 | -12% | 1.27
44 | C[C@@H](C(=O)N(C)C1CCN(c2ccccn2)CC1)n1ccnc1 | -15% | 1.89
45 | CCOc1cccc(CNC(=O)c2ccc(Oc3nccnc3N3CCOCC3)cc2)c1 | -2% | 0.22
46 | Cc1ccc(CN(C)CCC(C)(C)O)c(C)c1F | -6% | 1.04
47 | O=C(Cn1ncn2c(cc3ccccc32)c1=O)N1CCN(Cc2ccccc2)CC1 | -5% | 0.61
48 | O=C(NC[C@@H]1COc2ccccc2C1)c1ccc(S(=O)(=O)NC2CC2)cc1 | -1% | 0.13
49 | Nc1nc(COC(=O)[C@H]2CCCN(C(=O)c3ccc(Cl)cc3)C2)nc(Nc2ccccc2)n1 | -4% | 0.63
50 | Cc1c(CN(C)Cc2nncn2C)c(-c2ccccc2)nn1-c1ccccc1 | -7% | 1.17
51 | COc1ncccc1C(=O)N1CC[C@H](Oc2cc(C)n(C)c(=O)c2)C1 | 5% | -0.53
52 | CCCn1cc(CNc2cnc3[nH]nc(C)c3c2)cn1 | -10% | 0.99
53 | Cc1ccc(C)c(CN(Cc2ccc(F)cc2)Cc2nc(C(=O)NC(C)C)co2)c1 | -4% | 0.69
54 | CNc1nc(N2CCCn3nc(CNC(=O)C4CCC4)cc3C2)ncc1F | -1% | 0.1
55 | Cc1cc(Cl)ccc1NC(=O)Cn1ncc(-c2ccccc2)nc1=O | 4% | -0.48
56 | COCCNCCOCCOc1ccc(Cl)c(C)c1 | 3% | -0.64
57 | COc1ccc([C@H]2CCCCN(C(=O)C3CCOCC3)C2)cc1 | 15% | -1.85
58 | Cc1cc(-c2nnc(NC(=O)C(c3ccccc3)c3ccccc3)o2)n(C)n1 | -12% | 2.23
59 | Cc1cnc(CN(CCC2=CCCCC2)CC2CC2)cn1 | 8% | -1.12
60 | COc1cccc(S(=O)(=O)N2[C@H]3CCNC[C@@H]2CC3)c1 | -5% | 0.73
61 | CCCCNC(=O)c1cccc(-c2cnc3[nH]cnc3c2)c1 | -8% | 1.45
62 | CC1(CN2CCC(N3C[C@H](COc4ccc(F)cc4)OCC3=O)CC2)CCOCC1 | -10% | 1.95
63 | Cc1ccc2c(c1)[C@H]1CN(C)CCCC1N2S(=O)(=O)c1ccccc1 (stereo partly specified) | -1% | 0.16

Row | Compound | % Inhibition | Z score
64 | CC(C)(C)OC(=O)N1CCC[C@H](Nc2ccccc2CO)CC1 | 1% | -0.25
65 | Cc1cc(-c2nn(-c3ccccc3F)cc2CN(C)Cc2cnn(C)c2)c(C)s1 | 19% | -2.43
66 | O=C(N[C@@H]1[C@@H]2CCO[C@@H]2[C@H]1N1CCCCC1)c1n[nH]c2c1CCCC2 | -7% | 1.07
67 | COc1ccc(CNC(=O)C[C@H]2C(=O)NCCN2Cc2ccccn2)cc1 | 2% | -0.16
68 | COC(=O)c1nc([C@@H]2CCCN2C(=O)c2ncccc2O)sc1C | -7% | 0.98
69 | Cn1nccc1-c1ccc(CNC(=O)c2ccccc2)cn1 | 3% | -0.32
70 | CC(=O)Nc1ccc(S(=O)(=O)NC[C@@H](c2ccsc2)n2cccn2)cc1 | -2% | 0.4
71 | CC(=O)Nc1cccc(NC(=O)c2ccc3c(c2)CCCN3S(=O)(=O)c2ccc(C)cc2)c1 | 3% | -0.61
72 | CCc1cc(C(=O)N2CCCC[C@H]2c2cccc(F)c2)ccn1 | -13% | 2.48
73 | CC(C)n1cc(NC(=O)c2ccc([C@@H]3CCCN3)s2)nn1 | -18% | 2.17
74 | CCc1ncc(CN2CCCCC[C@H]2c2cccc(F)c2)cn1 | 3% | -0.51
75 | CNC1CCCN(C(=O)C2CCN(c3cc(Cl)ccc3Cl)C2=O)C1 (stereo unspecified) | -2% | 0.27
76 | CC[C@H]1[C@@H](NC(=O)Cn2ccnn2)[C@H]2CCO[C@H]21 | -6% | 0.67
77 | O=C(COc1ccccc1F)N(CCn1ccc(C(F)(F)F)n1)C1CCCC1 | -6% | 1.16
78 | Cc1noc(C)c1S(=O)(=O)N1CCC[C@](CC2CC2)(c2noc(-c3cccnc3)n2)C1 | 13% | -1.67
79 | O=C(c1cccc(F)c1)N1CCN(c2nc(-c3ccccc3)nc3cc(Cl)ccc23)CC1 | -1% | 0.08
80 | Cc1cc(C)cc(NC(=O)Cc2nc(-c3cccs3)no2)c1 | -12% | 2.13
81 | Cc1nonc1CN1C(=O)N(C)c2ccccc2S1(=O)=O | 34% | -3.89
82 | O=S(=O)(Nc1ccc(F)cc1OCC1CC1)c1cn[nH]c1 | 39% | -5.68
83 | Nc1c(C(=O)N2CCCCC2)sc(=S)n1Cc1ccccc1 | -6% | 0.77
